Experimental findings from ChEMBL document CHEMBL4888484, “Replenishing the malaria drug discovery pipeline: Screening and hit evaluation of the MMV Hit Generation Library 1 (HGL1) against asexual blood stage Plasmodium falciparum ,using a nano luciferase reporter read-out” (2022) are described below.

The whole screen tested about 150,000 compounds, of which about 540 (0.36%) showed an effect of 50% or more. This is one part of the list.

The test system of this experiment is Plasmodium falciparum. Description: Primary screen in NF54 nanoGlo assay, in single point, at 2uM, 72h; a lower Z score goes with more inhibition. Conditions: timepoint 72 hour. It counts as functional, Erythrocyte.
With `O=C(Nc1ccncc1)c1ccc2ccccc2c1`, the % Inhibition (in general, the relative decrease from the control value, in per cent) was -38% and the Z score amounted to 4.5.

Consider `CCc1cc2c(Nc3ccc4c(c3)OCO4)ncnc2s1`, for which the “% Inhibition” value was -25% and the Z score stood at 2.27.

For `Cc1nn(C)c(-n2cccn2)c1C(=O)O[C@H]1CCOC1`, the “% Inhibition” value is listed as -13% and the Z score was 1.47.

`Cc1nc2c(c(NC(=O)C3CCCCC3)nn2C)c(C)c1Cl`: the “% Inhibition” value is 24% and the Z score is given as -2.67.

`CCOc1cc(-c2nccn2-c2ccc3cn[nH]c3c2)ccc1O`: the “% Inhibition” value is -7% and the Z score came out at 0.92.

For `Cc1c(CNc2ccc(Br)cn2)cc(C#N)n1C`, the “% Inhibition” value is listed as -12% and the Z score was 1.8.

In the case of `CNC(=O)c1ccc(CNC(=O)Nc2c(C)cnn2C2CCCC2)o1`, the “% Inhibition” value is 17% and the Z score is on record as -1.65.

As for `Cc1cc(CN(C)Cc2cc3n(n2)CCCN(Cc2ncccc2F)C3)no1`, the “% Inhibition” value is on record as -20% and the Z score stood at 3.93.

Regarding `Cc1ccc(NC(=O)C(=O)Nc2ccc3c(c2)OCO3)cc1N1CCCC1=O`, the “% Inhibition” value is given as -12% and the Z score worked out at 1.85.

In the case of `COCCN(CCOc1ccccc1F)C(=O)c1cncc(O)n1`, the “% Inhibition” value is listed as -14% and the Z score came to 2.67.

As to `O=S(=O)(NCCc1csc(-n2cccn2)n1)C1CC1`, the “% Inhibition” value came out at 3% and the Z score is -0.41.

For `COc1cc2cc(c1)C(=O)NCCCC(=O)N[C@H]1CN(C(=O)c3cc(C)ccc3Cl)CC[C@@H]1OCc1cccc(c1)O2`, the “% Inhibition” value amounted to 3% and the Z score is -0.65.

In the case of `Cc1ccc(C(=O)NC2CCC(N3CCN4C(=O)CCC4C3)C2)cn1` (centres undefined), the “% Inhibition” value is -14% and the Z score is given as 1.72.

On to `OCCn1nc(-c2ccncc2)nc1CCN1CCCCCCC1`, for which the “% Inhibition” value was -8% and the Z score is 1.31.

Take `O=C(CN1CCN(c2ncnc3sccc23)CC1)NCC1CCCCC1`: the “% Inhibition” value is -10% and the Z score is on record as 1.37.

On to `Cc1c(-c2ccccc2)sc(NC(=O)C2CCN(S(C)(=O)=O)CC2)c1C(=O)N1CCCCC1`, for which the “% Inhibition” value is -3% and the Z score is 0.38.

In the case of `COc1ccc(CCC(=O)N2CCC[C@H]2c2cc(C(C)C)no2)cc1`, the “% Inhibition” value is -14% and the Z score was determined as 1.92.

`COCc1nnc(CNC(=O)NC2(C)C(C)(C)C2(C)C)[nH]1`: the “% Inhibition” value is reported as 10% and the Z score is recorded as -1.25.

As for `CC(C)Cn1ncnc1CN[C@@H](C)c1ccc(C2CC2)cc1`, the “% Inhibition” value was found to be 1% and the Z score is -0.14.

Take `Clc1ccc(-c2cn3c(nc4ccccc43)c(-c3ccccc3)n2)cc1`: the “% Inhibition” value is reported as -43% and the Z score is 5.09.

Regarding `N#CCOc1ccc(Br)cc1Br`, the “% Inhibition” value is on record as -10% and the Z score came out at 1.96.

On to `Cc1noc(CCC(=O)N[C@H](C)c2ccc(Cl)cc2)n1`, for which the “% Inhibition” value is on record as -8% and the Z score is on record as 1.3.

On to `CCCN(C)c1nccn2c(=O)n(CC(=O)Nc3ccc(F)c(Cl)c3)nc12`, for which the “% Inhibition” value is -8% and the Z score stood at 0.79.

On to `C#CCNC(=O)[C@@H]1Cc2c[nH]c3cccc(c23)[C@H](CC(C)C)N1`, for which the “% Inhibition” value is recorded as 1% and the Z score was -0.22.

As to `CC(C)[C@H]1CN(C)CCN1Cc1ccc2cc(O)ccc2c1`, the “% Inhibition” value was -17% and the Z score is reported as 2.23.

Take `Cc1ccc(-c2nn[nH]n2)cc1-n1cccn1`: the “% Inhibition” value came to 34% and the Z score is reported as -0.61.

Take `CNc1nc(NC[C@H]2CCCS2(=O)=O)ncc1Br`: the “% Inhibition” value was -6% and the Z score is reported as 0.61.

On to `CC(C)N(Cc1nccn1C)C(=O)Nc1ccccc1OC[C@H]1CCCO1`, for which the “% Inhibition” value amounted to 4% and the Z score was -0.7.

As for `O=C(NC[C@H]1CC[C@H](c2ccccc2)O1)c1cc(C(F)F)ncn1`, the “% Inhibition” value turned out to be 4% and the Z score is given as -0.62.

For `Cc1nc(C(C)C)cc(N(C)C[C@H](C)N2CCOCC2)n1`, the “% Inhibition” value is recorded as 6% and the Z score is recorded as -0.55.

As to `COc1ccc(NC(=O)Nc2ccc(CCc3nc4ccccc4n3C)cc2)cc1`, the “% Inhibition” value was -2% and the Z score came out at 0.28.

As for `CN(C)C(=O)NCC(=O)N1CC[C@@]2(CCCN(C3CCCC3)C2=O)C1`, the “% Inhibition” value is reported as -13% and the Z score came out at 2.55.

For the compound `CCN(C)C1(CNc2cnc3ccccc3n2)CCCC1`, the “% Inhibition” value was -13% and the Z score is listed as 1.39.

Consider `COc1ccccc1CNC(=O)[C@]1(C)Cn2nc(-c3ccccc3)cc2C(=O)N1CCc1ccco1`, for which the “% Inhibition” value was -10% and the Z score stood at 1.64.

For `O=C(c1ccc[nH]1)N1CC[C@@]2(CCCN(C3CCCC3)C2=O)C1`, the “% Inhibition” value is -15% and the Z score worked out at 1.38.

For the compound `O=C([C@H]1C[C@@H]1c1cccc(Cl)c1)N1CCC(O)(C(F)F)CC1`, the “% Inhibition” value was -10% and the Z score was 1.26.

For `O=S(=O)(NCC1(O)CCCC1)c1ccc(Cl)s1`, the “% Inhibition” value is -18% and the Z score is reported as 3.02.

For `CCS(=O)(=O)Oc1ccccc1CN(CC1CC1)C(=O)C1CCC1`, the “% Inhibition” value is reported as -13% and the Z score is 1.57.

Turning to `CC(C)(C)CC(=O)Nc1cccc(C#N)c1`, the “% Inhibition” value is on record as 11% and the Z score is listed as -1.51.

As for `CN1CCC(N2CCCC2CC(O)c2ccccc2)C1=O` (centres undefined), the “% Inhibition” value was determined as 8% and the Z score was -0.85.

Consider `Cc1noc(-c2c(C)[nH]c(C)c2S(=O)(=O)Nc2cccc(Cl)c2C)n1`, for which the “% Inhibition” value is -2% and the Z score came to 0.43.

`O=C(CC1CCCO1)N1C[C@H](O)C[C@H]1c1n[nH]c(-c2ccccc2)n1` (some centres undefined): the “% Inhibition” value is -20% and the Z score was found to be 3.87.
